Over roughly 33,000 sequences, “E-score (-0.5 to 0.5)” has its median near -0.056; the highest 2% begin near 0.38. The list shows a part of the results.
Biological target: Stb4 (UniProt P50104)
Assay: PBM E-score (8-mer binding enrichment) (E-score (-0.5 to 0.5)); higher = stronger / more preferred TF binding; most listed sequences are background and not binding sites
Settings: protein concentration: 200 nM; construct: GST-DNA-binding domain
Experimental: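 Universal 'all 10-mer' protein binding microarrays (Agilent AMADID 015681) probed with GST-tagged S. cerevisiae TFs (full-length or DBD) made by in vitro transcription/translation (PURExpress), about 100-200 nM. Bound TF was detected with fluorescent anti-GST. Each ungapped 8-mer (which stands for itself and its reverse complement) is scored by the PBM enrichment score (E-score), a modified Wilcoxon-Mann-Whitney statistic from -0.5 to +0.5, computed with the Universal PBM Analysis Suite. Scale: above 0.35 generally sequence-specific binding.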

Sequence | PBM E-score
AAAACGCC | 0.17
GAGGGCCA | -0.155
GCTATCTA | -0.0253
ACCTCTTC | -0.0573
CTGTTGCA | -0.00839
AGACTGGC | -0.17
GGCTTACC | 0.128
AAAACACT | 0.0517
CTTCACTC | -0.114
CGTTAAGC | -0.06
CGGTATAA | 0.251
AGGCCTAC | -0.176
CGGTTAAC | 0.221
ATATCCTG | -0.0665
AACAGATT | -0.0753
CGGGTTTC | 0.277
AAGCCGTG | 0.0738
CATCGTTA | -0.211
GACCTCAC | -0.0909
CATTGTGG | -0.0833
ATTCATTA | -0.125
TCCCAGCA | -0.0542
AAGCTGTC | -0.17
GAGTCTGC | -0.204
GAACGTAA | 0.0228

Sequence | PBM E-score
CCCTAACA | -0.0489
CAGCCTTC | -0.0839
ACGTTGGA | -0.218
AGTCCCGC | 0.15
GTACTGGA | -0.146
CCAAGTAC | -0.196
AACGAGAT | 0.0091
AGGCCCTC | -0.142
GATTCTCA | -0.13
AGAACGTC | -0.0846
AGGGACGC | -0.283
ACCTGCGC | 0.0374
AGGCATCG | -0.054
GAAGCGAA | -0.0908
ACATTCGT | -0.183
AGTATCGG | 0.296
TCACACGA | -0.0221
ATGATTAA | -0.0965
ACAGACTG | -0.188
GCCCTGAC | -0.311
TACACTGA | -0.0306
CACCTATA | -0.332
AGACGTCG | 0.0424
GACGGTAA | 0.126
ACAAAGGA | -0.0594

Sequence | PBM E-score
CTCCAATA | -0.0752
CAATTAGG | -0.0205
ATCGGCCG | 0.305
AGAAAACA | -0.0314
CGGAAACC | 0.347
ACAAATGC | 0.0346
AAAGGACA | -0.0993
GTCATGGA | -0.153
TAGCCGCA | 0.194
GTAAAGAC | -0.0616
CCCTCAAA | -0.0851
GTGAGAAC | -0.163
CACTGAGC | -0.0964
AGGGATCA | -0.11
ATTAATTC | 0.154
AGCAACCC | 0.0511
AACGGGGT | -0.107
TACCACTA | -0.166
AAGAAACA | 0.0325
ACCAGTAT | 0.0978
GGGCACCC | 0.0879
CAGGACAG | -0.202
ATCAAATC | 0.00194
GAGGCCAA | 0.019
AATTGAGA | -0.0482

Sequence | PBM E-score
CCGATTAC | 0.3
AGGGCAGG | -0.0683
CGGGAGGA | 0.352
GATGGCGA | -0.0541
AGAATACA | 0.0522
AATATCGT | 0.00244
GTAGACCA | -0.156
CGTTTCAA | -0.0406
ATTGGATA | -0.121
TGCTAACA | -0.0419
ATCTTATG | -0.145
ACCTGGCA | -0.0904
AAATTTCA | -0.381
ACTGGGTA | -0.165
CGATCACA | 0.0837
GAGACATA | -0.0788
GCATTCAA | -0.0963
GCTGTTGA | -0.0368
CCCTAATA | -0.253
GTGTGCAA | -0.127
ACGATGAG | 0.00595
GAGACCAA | 0.0703
CTACAGCA | -0.0189
CAATGACA | -0.274
GATCTTCA | 0.112

Sequence | PBM E-score
ACTAAAAA | 0.0862
GCCTTTTA | -0.143
AATTAAGA | -0.146
CGTTCTAG | -0.096
CTAGACAG | -0.114
ACTCCCAA | -0.0831
CTCGAAAG | -0.0594
ACTAGTAC | -0.171
GCACGGCC | 0.0345
ATGGGACA | -0.0554
CATTAGAA | -0.0101
ACTTACTC | -0.0276
ACTATGAT | -0.0459
ACATTAGC | -0.116
CGCCTCGC | -0.126
CGCCCGTA | 0.114
ATTTATAG | -0.23
AATGATCG | 0.12
AGCTTGTC | 0.0309
ACCACGAG | -0.0955
CGGACGCA | 0.128
ATATTACG | 0.0999
CCACCCCA | -0.114
CATAAGTA | -0.0524
CAAACTGA | -0.093

Sequence | PBM E-score
AATGGTAA | 0.121
GAAATAAA | -0.0782
CGCCTGAG | -0.0667
ACACACCT | -0.0221
CGACCGCG | 0.142
GTATAGAA | -0.0177
CAAAGAAC | -0.0719
CCATCAGA | -0.177
ACCTCAAC | -0.129
CCCTCAAG | -0.15
AGGATCAC | -0.249
CTCGGTGA | 0.316
CTGACGTA | -0.0361
ACTGTATA | -0.0986
CTAGCGTC | -0.165
AGTGATCG | -0.148
ATGAACGG | 0.011
CGGTTCAG | 0.173
CAGAAATG | -0.245
GGGTGAGA | 0.0394
CACCACAG | -0.0617
CCCTGACC | 0.0155
ACCAAACA | -0.0484
CGACTCTA | -0.0284
CCTACAAG | -0.104

Sequence | PBM E-score
GAGAGATA | -0.0772
ATGATAGA | -0.0513
ACAGCCCC | -0.174
GCGCAGAC | -0.0787
CTCCCGAC | 0.33
AAGGCTTC | -0.0882
ACGCGATG | -0.107
CCTTTCAA | -0.112
CCAGAAGA | -0.291
CACCTGAA | -0.0897
CTGCTTTA | 0.0123
GGACAGTA | 0.0699
CTACCGGA | 0.279
TCGGTTCA | 0.321
CACCTATC | 0.00998
GCTCGACC | -0.083
CGGACTTC | 0.237
TAAAATAA | -0.0195
ACAGTAAT | -0.214
AAGTCGCG | -0.0401
AACGAGCG | -0.0273
AATCTGGC | -0.066
GATGCTCA | 0.0839
ATTCTGCG | -0.0218
TACGTCCA | -0.3

Sequence | PBM E-score
ACGGCGAA | 0.0391
CATGAAAC | -0.0166
ATCTGTAC | 0.155
CCCTGGTA | -0.182
GTCGACGA | 0.0397
CAACCTAA | -0.227
GAAAGGCA | 0.0635
GGAGTGGA | -0.0326
CTGGTGCC | -0.131
TGGACGAA | -0.284
ACGCCCGT | 0.168
CGTTGAGC | -0.0224
ATACCATA | -0.239
AAATAACT | -0.0152
CGACACCG | 0.272
AGCTATGG | -0.00676
CATTAAGG | -0.125
CAGCTATG | -0.417
CATGGACA | -0.261
CAGTCATA | -0.0983
TAGGGCAA | -0.0403
ACCCGACC | 0.382
GATCGACC | 0.207
CCGCTTGA | 0.0378
GCGTGGCA | -0.123

Sequence | PBM E-score
AACAGGCG | -0.093
CAGTGTTA | 0.0292
ATAATGTA | -0.141
ACTCTACG | -0.0896
ACAGCGTA | -0.143
GAAGGACA | 0.0326
GGAAACCA | 0.104
ACTTGTCG | 0.109
CAATCAAC | 0.0318
GGCCTGAA | -0.0159
AGTTTCTC | -0.00483
AAATGTAA | 0.0853
CTACCCAA | -0.209
GTCGCGCA | -0.0321
CATGTCCA | -0.115
CTACAAAG | -0.0119
GATCAGAA | -0.21
AGTGACAG | -0.0545
AAGGGCAA | 0.158
CATTCAGC | -0.116
ATACCCCG | 0.205
GCTAAAGC | -0.0776
CCTAGATC | -0.243
ATTATTGG | 0.0336
ACTCTGCA | -0.0748

Sequence | PBM E-score
CGTACAGC | 0.109
CAGATCGG | 0.235
GCGAGCCA | -0.083
CCCGTAAG | 0.0679
ACCATTTC | -0.0482
AACCCATC | -0.0878
ATGGACAT | -0.105
CCTCTTTA | -0.157
GTAGTGTA | -0.17
GTTATTCA | -0.0861
ATGCACTA | -0.137
AGCGATAT | -0.172
GCCCTCCC | 0.0602
CCAATTGA | -0.286
CAAAATAC | -0.00837
ATCACCTG | -0.00622
CGCCACCC | -0.0935
GGCAAGAC | 0.0454
TAAGTGAA | 0.00631
GACCCAAA | -0.0669
GCACTTCC | 0.0806
GCAATCAC | 0.186
AATGAGGC | -0.312
ATTCCCAC | -0.124
AAAGGCGG | -0.0456

Sequence | PBM E-score
TAGGCAAA | -0.231
AATAGGTC | -0.0225
ACCGATTA | 0.326
AAACCACT | -0.209
GCCCGGAC | 0.229
AATAGCGA | -0.136
CTGATTGA | -0.225
CCTCCGAA | 0.352
GAACAGGC | -0.0136
AATACCTG | -0.0376
ACTCGCTA | 0.00234
ACCTGATC | -0.104
TATCAAGA | -0.216
AACGCTTG | -0.176
TGTATAAA | -0.0485
AAACCCTC | 0.045
ACAGAACC | -0.125
TACTATAA | -0.141
CAGCAACC | -0.00894
CGAGAGCG | 0.0945
ACCCATAT | -0.117
GTTTACGA | -0.133
AACGATGA | -0.0144
CCGCTCCG | 0.298
CAGGCGCG | -0.222

Sequence | PBM E-score
ACTCGGAG | 0.362
ACATTTAA | 0.0306
GCCCGCAC | 0.0703
ACGATATG | -0.0289
ATGTACGC | -0.243
CTGACTCC | -0.0827
GCACGGTA | -0.04
CTCTTAAC | -0.0542
ACGAGAAC | -0.149
GCCTGGGA | -0.135
ACTGATCG | -0.206
ACGGCAGA | 0.156
CATCGAAC | -0.173
AAACTACA | 0.0123
ATCATGTG | -0.135
AACTTAGT | 0.0161
GGCTCCCC | 0.0286
ATAATGCG | 0.0595
CGGGATAC | 0.32
AGTTCCTA | 0.00074
GCCATGGC | -0.361
ACAGAAGC | -0.153
CTCCCAGA | -0.263
AGCACCCA | -0.0678
ATACGAAC | -0.0799

Sequence | PBM E-score
GAGGGGGA | -0.185
CGCACGAC | -0.0583
ATTGCACA | -0.151
CGGGGAGC | 0.179
GAGAAGTA | -0.129
ACGCACAC | -0.0434
AGTGTGAT | -0.0318
ATAAGCGA | 0.0555
CGTCACAG | -0.126
CCTGTACC | -0.0584
AATGAGAA | -0.0737
CCGACAAC | 0.283
CCTGTCAC | -0.0895
AGTCGAAT | -0.0922
ACCCACCT | -0.0657
AACCGTTC | 0.284
AGGTGGGC | -0.176
GTGAAGTA | -0.0455
CCCGAGGG | 0.404
TATAACAA | -0.0542
ATTTCGTC | -0.103
CTAAACGA | -0.147
CTTCTCGA | -0.318
GACCTAAC | 0.00842
AAGTGTGT | -0.259

Sequence | PBM E-score
GGAAAGGA | 0.205
AACGCCGG | 0.213
ACGCGATC | 0.0854
ATGCCCAA | -0.0456
GCCGATGA | 0.295
GGCTTCAC | 0.0049
GAGACACC | -0.122
AGTCTGAT | -0.142
CGAGGACA | 0.0556
ATCTGGTG | -0.152
CATATAGA | -0.244
ATGTTGTA | -0.196
AGCTGCTG | -0.233
CCGCCGGC | 0.314
CCGTCAGA | 0.0622
ACACAAAA | 0.0149
CTTTCCCC | 0.12
ACTGAAAC | 0.028
ACAGTAGT | -0.171

From the supplement of paper PMC3334620
